About 14,000 (4.5%) of roughly 310,000 compounds showed an effect of 50% or more. Effects have a minus sign here. This is one part of the list.
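Note: peak tail current of the secondary pulse compared with the same well before compound.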

Chain of human ether-à-go-go-related gene (hERG) potassium channel (Q12809 whole entry, looked up): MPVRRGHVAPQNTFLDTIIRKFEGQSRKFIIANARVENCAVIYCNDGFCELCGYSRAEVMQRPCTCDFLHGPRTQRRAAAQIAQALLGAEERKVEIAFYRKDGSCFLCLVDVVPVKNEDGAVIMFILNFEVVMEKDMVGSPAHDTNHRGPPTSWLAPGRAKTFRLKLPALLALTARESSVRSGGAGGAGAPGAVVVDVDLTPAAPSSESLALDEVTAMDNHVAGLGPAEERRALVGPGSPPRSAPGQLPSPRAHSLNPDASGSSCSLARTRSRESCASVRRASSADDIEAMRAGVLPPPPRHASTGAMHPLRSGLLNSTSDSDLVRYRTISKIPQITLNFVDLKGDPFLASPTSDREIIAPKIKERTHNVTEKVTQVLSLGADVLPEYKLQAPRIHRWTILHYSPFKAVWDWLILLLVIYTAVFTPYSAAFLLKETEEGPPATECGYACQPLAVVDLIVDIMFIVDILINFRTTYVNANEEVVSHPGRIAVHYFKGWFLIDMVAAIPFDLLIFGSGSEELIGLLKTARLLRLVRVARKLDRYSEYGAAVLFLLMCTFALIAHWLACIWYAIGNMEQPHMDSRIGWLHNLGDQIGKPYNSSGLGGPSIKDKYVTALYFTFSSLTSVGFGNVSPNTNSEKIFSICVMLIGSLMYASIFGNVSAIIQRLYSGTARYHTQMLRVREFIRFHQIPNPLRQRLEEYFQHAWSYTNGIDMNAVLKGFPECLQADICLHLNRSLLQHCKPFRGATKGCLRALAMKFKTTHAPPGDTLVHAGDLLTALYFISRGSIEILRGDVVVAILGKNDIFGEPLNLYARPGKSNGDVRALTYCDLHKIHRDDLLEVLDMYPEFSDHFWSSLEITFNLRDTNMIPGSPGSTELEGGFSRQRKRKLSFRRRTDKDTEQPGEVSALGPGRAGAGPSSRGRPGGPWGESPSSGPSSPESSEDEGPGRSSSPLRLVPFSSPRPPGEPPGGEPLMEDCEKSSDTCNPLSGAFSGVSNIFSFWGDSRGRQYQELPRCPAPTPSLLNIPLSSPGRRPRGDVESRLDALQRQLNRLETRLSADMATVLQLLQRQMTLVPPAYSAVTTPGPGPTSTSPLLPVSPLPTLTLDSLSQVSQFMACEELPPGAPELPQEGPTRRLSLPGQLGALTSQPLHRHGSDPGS

The test concerns the target human ether-à-go-go-related gene (hERG) potassium channel (human, UniProt Q12809). Nature of the test: primary screen, population patch clamp on CHO cells stably expressing hERG.
Turning to `CC(C)CCn1cnc2c1c(=O)n(C)c(=O)n2C`, the “hERG current change (%, negative = inhibition) at 10uM” value is -9.74%.
For `Cc1cccc(-n2ccnc2SCC(=O)Nc2cc(C)on2)c1`, the “hERG current change (%, negative = inhibition) at 10uM” value was determined as 2.47%.
For `CN1CCN(C2=CC(=O)OC23CCCCC3)CC1`, the “hERG current change (%, negative = inhibition) at 10uM” value is 15.2%.
For the compound `COc1cccc2sc(Nc3nnc(-c4cccs4)o3)nc12`, the “hERG current change (%, negative = inhibition) at 10uM” value is 4.96%.
In the case of `CCC(C(=O)NCCCN1CCCCCC1)n1nc(C)c2sc3ccccc3c2c1=O` (centres unmarked), the “hERG current change (%, negative = inhibition) at 10uM” value is 12.5%.
In the case of `O=C(NCC1CCCO1)c1cc(S(=O)(=O)N2CCCC2)c(Cl)cc1Cl` (centres unmarked), the “hERG current change (%, negative = inhibition) at 10uM” value came out at 10.1%.
For `COc1cccc(C(=O)NNC(=O)c2cccc(F)c2)c1`, the “hERG current change (%, negative = inhibition) at 10uM” value is on record as 20.5%.
As for `CC[n+]1c(/C=C/N(C)c2ccccc2)oc2ccccc21.O=S(=O)([O-])CCO`, the “hERG current change (%, negative = inhibition) at 10uM” value came to 0.826%.
Turning to `Cc1ccccc1OCCSc1nc2ncnc(N)c2[nH]1`, the “hERG current change (%, negative = inhibition) at 10uM” value was found to be 25.8%.
In the case of `COC(=O)c1c(NC(=O)C2C3CCC(C3)C2C(=O)O)sc2c1CCCCC2` (centres unmarked) it was 3.42%; in that of `O=C(NNc1nc2c(F)cc(F)cc2s1)c1ccccc1`, 8.87%; in that of `CC1Cc2ccccc2N1C(=O)CSCC(=O)O` (centres unmarked), 11.8%.
In the case of `NC(=O)C1CCN(C(=O)CC2(CC(=O)O)CCCCC2)CC1` it was 14.6%.
Take `O=c1c2cnn(-c3ccc(F)cc3)c2ncn1Cc1ccc(F)cc1`: the “hERG current change (%, negative = inhibition) at 10uM” value is -0.17%.
Consider `O=C1CC(c2cc3c(cc2Br)OCO3)C2=C(CCCC2=O)N1` (centres unmarked), for which the “hERG current change (%, negative = inhibition) at 10uM” value was -3.89%.
For the compound `CC(C(=O)NC1CCCC1)N(c1ccc(Oc2ccccc2)cc1)S(C)(=O)=O` (centres unmarked), the “hERG current change (%, negative = inhibition) at 10uM” value is recorded as -24.1%.
For `COc1cc(OC)c(C2=Nc3ccc(Br)cc3C(c3ccccc3)N2CC(=O)NN)cc1OC` (centres unmarked), the “hERG current change (%, negative = inhibition) at 10uM” value is given as -16.2%.
For `COc1ccccc1CNC(=O)[C@H](C)NC(=O)C1CCN(C(=O)[C@@H](N)Cc2ccccc2)CC1` the value was 3.46%; for `Cc1nnc(Nc2ccc3c(c2)ncn3C)c2ccccc12`, 0.0649%; for `COc1cc(/C=C2/C(=O)NN(c3cccc(Cl)c3)C2=O)cc(Br)c1O`, 15%.
With `CCCCNC(=S)NNc1c(Cl)cc(Cl)cc1Cl`, the “hERG current change (%, negative = inhibition) at 10uM” value is reported as 5.71%.
Consider `N#C/C(=C\Nc1ccccn1)S(=O)(=O)c1ccc(Cl)cc1`, for which the “hERG current change (%, negative = inhibition) at 10uM” value came to 10.2%.
On to `COc1cccc(N=C(N)N=C(N)N)c1`, for which the “hERG current change (%, negative = inhibition) at 10uM” value was 17%.
In the case of `CC(C)(C)OC(=O)NOCC(=O)N(CC(=O)c1ccccc1)Cc1ccccc1`, the “hERG current change (%, negative = inhibition) at 10uM” value is -2.3%.
Consider `O=C(Nc1ccccc1)Oc1cccc(Br)c1`, for which the “hERG current change (%, negative = inhibition) at 10uM” value came to 7.36%.
In the case of `CN(N=Nc1cccc([N+](=O)[O-])c1)c1ccccc1` it was 4.55%; in that of `CC1CCCN(Cc2nc3c(c(=O)n(C)c(=O)n3C)n2CC(=O)c2ccccc2)C1` (centres unmarked), -8.71%; in that of `Cc1ccc2c(c1)N(C(=O)CCC(=O)O)CCO2`, 7.39%.
Regarding `CS(=O)(=O)NCCSCc1c(Cl)cccc1Cl`, the “hERG current change (%, negative = inhibition) at 10uM” value is given as 1.77%.
Take `Cc1ccc2c(cnn2C(=O)CCC(=O)NCc2ccccc2Cl)c1`: the “hERG current change (%, negative = inhibition) at 10uM” value was 6.52%.
As for `Cc1ccc(OCCNC(=O)C2CC(=O)N(Cc3ccccc3)C2)cc1` (centres unmarked), the “hERG current change (%, negative = inhibition) at 10uM” value is -16.4%.
For `Cc1ccc(C)c(N2CCN(C(=O)CCCn3c(=S)[nH]c4cc5c(cc4c3=O)OCO5)CC2)c1` the value was 5.9%.
`CCCCNC(=O)COCc1cc(-c2ccc3c(c2)OCO3)on1`: the “hERG current change (%, negative = inhibition) at 10uM” value is -6.65%.
For `CC1CCCC(NC(=O)c2cccc(S(=O)(=O)N3CCN(c4ccccc4)CC3)c2)C1C` (centres unmarked) the value was 6%; for `COC(=O)c1ccc(NC(=O)CNC(=O)c2sc3ccccc3c2Cl)cc1`, -0.0337%.
Consider `O=C(COc1ccccc1)NCc1ccc(-n2cccc2)cc1`, for which the “hERG current change (%, negative = inhibition) at 10uM” value is reported as 20.1%.
With `CC(C)C(=O)Nc1nc2c(c(=O)[nH]1)CCCC2`, the “hERG current change (%, negative = inhibition) at 10uM” value turned out to be 10.9%.
Take `COc1cccc(NC(=O)N2CCCC2C(=O)NCc2ccco2)c1` (centres unmarked): the “hERG current change (%, negative = inhibition) at 10uM” value amounted to 3.72%.
Take `O=C(NNc1ncnc2c1cnn2-c1ccccc1)c1cccs1`: the “hERG current change (%, negative = inhibition) at 10uM” value is 14.6%.
On to `COc1ccccc1-n1c(SCC(=O)N(C)C2CCS(=O)(=O)C2)nc2ccccc2c1=O` (centres unmarked), for which the “hERG current change (%, negative = inhibition) at 10uM” value was -7.47%.
Take `COc1ccc(CCn2c(=N)c(C(=O)NC3CCCC3)cc3c(=O)n4ccccc4nc32)cc1`: the “hERG current change (%, negative = inhibition) at 10uM” value was -81.9%.
For the compound `OCCC1CN(Cc2cccn2-c2ccccn2)CCN1Cc1ccccc1` (centres unmarked), the “hERG current change (%, negative = inhibition) at 10uM” value was -76.5%.
Take `CC(C)c1ccc(C(=O)NNC(=O)c2ccncc2)cc1`: the “hERG current change (%, negative = inhibition) at 10uM” value came out at 26.6%.
For `COC(=O)c1ccc(OS(=O)(=O)c2ccc(NC(C)=O)cc2)cc1` the value was -3.32%.

These data come from paper PMC4336329 (PLoS ONE, 2015).
